Measurements as given in article PMC8623395, “Virtual Screening and Molecular Dynamics Simulation Study of Influenza Polymerase PB2 Inhibitors” (Molecules, 2021).

Target: PB2 CBD of influenza A/WSN/1933(H1N1) (Influenza A virus, UniProt P03427)
Assay: Surface plasmon resonance (SPR) analysis

Row | SMILES | Kd [µM]
1 | O=C(Nc1nc(-c2ccc(O)cc2)c(CCc2ccccc2)s1)c1cc(O)c(O)c(O)c1 [Str1614] | 0.081
2 | CCCCOc1ccc(-c2csc(Nc3ccc(CCC(=O)O)cc3)n2)cc1Cl [Str1916] | 0.917
3 | O=C(O)c1cccc([C@@H](c2ccc(O)c(C(=O)O)c2)C(Cl)(Cl)Cl)c1 [Str5776] | 0.178
4 | O=C(CCCCC(=O)c1ccccc1C(=O)O)c1ccccc1 [Str6318] | 1.53
5 | COc1c2oc3c(OC)ccc(C(=O)N[C@@H](Cc4ccccc4)C(=O)O)c3nc-2cc(N)c1=O [Str7374] | 0.91
